Test results from PubChem BioAssay AID1508642 (National Center for Advancing Translational Sciences (NCATS), 2021).
About 200 (0.47%) of roughly 43,000 compounds were called active. Another 12% or so got no clear call; they are omitted. The call rests on the fitted dose curve; in most records, active means well fitted cell-killing curve with a large enough effect; inconclusive means small, poorly fitted or top-dose-only effect, or effect the other way; inactive means flat fitted curve, though single readings scatter. The list shows a part of the results.

Assay: Cell viability qHTS assay in S16 Pmp22-F2sN cells; further: nearly all actives have a fitted effect of over 65% in size
Conditions: S16 Pmp22-F2sN Schwann cells (luciferase reporters placed in the Pmp22 gene) viability, CellTiter-Glo, 24 h; series mostly up to 57.5 µM; activity change, negative = cytotoxicity: at the top concentration
Summary of the method: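 Seed 500-1,000 S16 Pmp22-F2sN cells per well in phenol-red-free DMEM with 10% heat-inactivated FBS; pin-add 23 nL compound; incubate 24 h at 37C; add CellTiter-Glo, wait 15 min protected from light; read luminescence.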
On the % scale 0 is the no-effect control and ±100 the full control effect.

Structure (SMILES)	activity change, negative = cytotoxicity
Cc1c(Cl)cccc1NC(=O)C(C)n1c(=O)cc(C)c2c(C)nn(-c3ccccc3)c21 (stereo not drawn)	inactive: 5.5%
CCCCOc1ccc(C2C(=O)N(C3CCCCC3)CC(=O)N2CCCC)cc1 (stereo not drawn)	inactive: -4.52%
Cc1cc(C)cc(C(=O)N2CC(=O)Nc3ccc(Br)cc3C2c2ccccc2)c1 (stereo not drawn)	inactive: 4.92%
Cc1ccc(NC(=O)Cn2c(-c3nonc3N)nc3ccccc32)c(Br)c1	inactive: -0.232%
COc1cccc(CNC(=O)CCc2c(C)c3ccc(O)c(C)c3oc2=O)c1	inactive: 15%
CCOC(=O)c1noc2ncn(CC(=O)Nc3ccccc3OC)c(=O)c12	inactive: 11.6%
CN1C(=O)c2[nH]nc(-c3ccc(F)cc3)c2C1c1cccc(O)c1 (stereo not drawn)	inactive: 0.0186%
Cn1cc(-c2cc3n(n2)CCC(=O)N3CCCC(=O)NCc2ccccc2Cl)c2ccccc21	inactive: -2.54%
Cc1cc(C)cc(Nc2nc3cc(Cl)c(Cl)cc3nc2-n2nc(C)cc2C)c1	inactive: 3.55%
CC(C)CCn1c(SCc2cccc(F)c2)nc2ccsc2c1=O	inactive: 1.65%
CN1C(=O)C2(c3ccccc31)N(c1ccc(Br)cc1)C(=O)CS2(=O)=O (stereo not drawn)	inactive: -2.47%
O=c1[nH]c(C2CCCN(S(=O)(=O)c3ccccc3)C2)nc2c1nnn2Cc1ccc(OC(F)(F)F)cc1 (stereo not drawn)	inactive: -0.193%
Cc1cc(C)cc(C(=O)n2nc(C)c(S(=O)(=O)N3CCOCC3)c2C)c1	inactive: -11.8%
O=C(CSc1ncc2c(n1)-c1ccccc1N(Cc1ccc(F)cc1)S2(=O)=O)NCCc1ccccc1	inactive: 3.79%
C#CC(C)(CC)NC(=O)Cn1nnc(-c2ccc(OCc3c(F)cccc3Cl)cc2)n1 (stereo not drawn)	inactive: -14.7%
COc1cc(NC(=O)CN(c2cc(C)cc(C)c2)S(=O)(=O)c2c(C)[nH]c(=O)[nH]c2=O)cc(OC)c1	inactive: 5.42%
Cc1cn2c(=O)cc(COc3ccc(NC(=O)COc4ccccc4)cc3)nc2s1	inactive: 11.5%
CCOc1ccc(-c2nc3ccccc3c(=O)o2)cc1	inactive: 2.23%
CCOC(=O)c1c(NC(=O)c2ccc(F)cc2)sc2c1CCC(CC)C2 (stereo not drawn)	inactive: -13%
Cc1ccc(Nc2cc(C)nc3nncn23)c(C)c1	inactive: -9.7%
CCOC(=O)c1cccc(NC(=O)[C@H](CSCc2ccccc2)N2Cc3ccccc3C2=O)c1	inactive: 13%
CCCCNC(=O)CSc1nc2cc3c(cc2c(=O)n1CCCCCC(=O)NCc1ccc(OC)cc1)OCO3	inactive: 4.12%
COc1ccc(CNC(=O)c2cnc3sc(N4CCCC4)nn3c2=O)c(OC)c1	inactive: 2.64%
CCc1ccc(Nc2nnc(-n3nc(C)cc3C)c3ccccc23)cc1	inactive: -0.109%
COc1ccc(C2CC(=O)N(CC(=O)Nc3ccc(C)c(Cl)c3)c3ccccc3S2)cc1OC (stereo not drawn)	inactive: -0.468%

Structure (SMILES)	activity change, negative = cytotoxicity
CCOC(=O)C1CCCN(S(=O)(=O)c2ccc3c(c2)oc(=O)n3C)C1 (stereo not drawn)	inactive: -8.62%
COc1ccc(N(Cc2cccs2)C(=O)Nc2cccc(Cl)c2)cc1	inactive: -12.3%
Cc1ccccc1NC(=O)CCN1C(=O)c2ccccc2Sc2ncccc21	inactive: 3.65%
COc1cccc(NC(=O)CCc2c(C)nc3ncnn3c2C)c1	inactive: 6.85%
Cc1ccccc1C(=O)NCCc1sc(-c2ccc(Cl)cc2)nc1C	inactive: 13.2%
COc1ccc(CNC(=O)Cc2csc3nc(-c4ccc(F)cc4)cn23)cc1	inactive: -1.87%
CCCc1cnc2c(c1SCc1cccc(F)c1)c(=O)n(C)c(=O)n2C	inactive: 6.24%
CCCc1noc(-c2ccc(NCc3ccc(C)cc3)c([N+](=O)[O-])c2)n1	inactive: 2.83%
COc1ccc(-c2cn3c(n2)sc2cc(C(=O)NCc4cccc(F)c4)ccc23)cc1	inactive: 10.2%
Cc1ccc(NC(=O)Cn2c(=O)n(Cc3ccc4c(c3)OCO4)c(=O)c3ccccc32)cc1	inactive: 23.4%
Cc1ccccc1-c1cc2nccc(-c3cc(Cl)ccc3O)n2n1	inactive: -5.09%
Cc1ccc(NC(=O)CN2C(=O)COc3ccc(S(=O)(=O)NC4CCCC4)cc32)c(Cl)c1	inactive: -1.03%
Cc1nc(C)c(CCNS(=O)(=O)c2ccc(F)cc2)s1	inactive: 2.39%
COc1ccccc1CN1CCNC(=O)C1=O	inactive: 17.6%
COc1ccc(N(Cc2nnc3n2CCCCC3)C(=O)Nc2cccc(C)c2)cc1Cl	inactive: 8%
O=C(Cn1ncc2c3ccccc3n(Cc3ccccc3)c2c1=O)NC1CCCCCC1	inactive: 14.9%
COc1ccc(-c2coc3c2c(C)cc2oc(=O)c(CC(=O)O)c(C)c23)cc1	inactive: -19.1%
COc1ccccc1NC(=O)Cn1c(=O)n(-c2cccc(C)c2)c(=O)c2c1c1cc(C)ccc1n2C	inactive: 18%
COc1ccc(NC(=O)C(CC(C)C)NC(=O)C2CCCCC2)cc1 (stereo not drawn)	inactive: -1.57%
COc1cc2c(cc1OC)C(COc1ccc(F)cc1)N(C(=O)c1cccc(F)c1)CC2 (stereo not drawn)	inactive: -1.45%
CN(C)CCCNC(=O)C(=O)NCC(c1ccc2c(c1)OCO2)N1CCOCC1 (stereo not drawn)	inactive: 3.3%
Cc1nc2nc(SCC(=O)Nc3ccccc3Cl)nn2c(C)c1Cc1ccccc1	inactive: 6.88%
O=C(c1ccc(Br)cc1)N(Cc1cccs1)c1ccc(F)cc1	inactive: 20.7%
CN1CCN(C(=O)Cn2ncc3c4ccccc4n(Cc4ccc(F)cc4)c3c2=O)CC1	inactive: -0.197%
Cc1cc(C)c(S(=O)(=O)Nc2ccc3oc4c(c3c2)C(=O)CC(C)(C)C4)cc1C	inactive: 2.38%

Structure (SMILES)	activity change, negative = cytotoxicity
COc1ccc(-c2cnc(C)o2)cc1S(=O)(=O)Nc1ccc(F)cc1F	inactive: -0.656%
COc1cc(OC)c(NC(=O)c2cn(C3CCCC3)c(=O)c3c2c2ccccc2n3C)cc1Cl	inactive: 16.5%
COc1cccc(C(=O)Nc2ccccc2OCc2cc(=O)n3ccccc3n2)c1	inactive: 6.44%
Cc1cc(N(CCO)Cc2ccccc2)n2nc(-c3ccc(C(C)(C)C)cc3)nc2n1	inactive: -6.01%
Cc1cccn2c(=O)c(/C=C(\C#N)c3nc4ccccc4s3)c(Oc3ccc(F)cc3)nc12	inactive: -6.17%
CCOCCn1ccc2c(OCC(=O)Nc3cccc([N+](=O)[O-])c3)cccc2c1=O	inactive: 2.62%
CCOc1cc(CNC(=O)C(NS(=O)(=O)c2cccs2)C(C)C)cc(OCC)c1OCC (stereo not drawn)	inactive: 3.49%
O=C(Cn1c(SCc2cccc(F)c2)nc2ccncc21)Nc1ccc(Cl)cc1F	inactive: -11.1%
COc1ccc(NCc2cccn2-c2nnc(N3CCOCC3)s2)c(OC)c1	inactive: 2.57%
O=C(NNc1ncnc2c1cnn2-c1ccccc1)c1ccccc1	inactive: -6.66%
COCCNC(=O)Cn1c(=O)n(-c2ccc(C)c(C)c2)c(=O)c2c3c(sc21)CCCCC3	inactive: 8.98%
CCOC(=O)c1cccc(NC(=O)C2CCN(c3nnc(C)c4c(C)n(-c5ccccc5)nc34)CC2)c1	inactive: 18.9%
COc1ccc(NC(=O)CN2CCN(S(=O)(=O)c3ccc(Br)cc3)CC2)cc1	inactive: 0.974%
COc1ccc(Cl)cc1NC(=O)C(C)N1Cc2ccccc2C1=O (stereo not drawn)	inactive: 2.8%
Cc1ccc(C(CC(=O)Nc2ccc(C)cc2C)N2Cc3ccccc3C2=O)cc1 (stereo not drawn)	inactive: -18.8%
CCOC(=O)c1c(NC(C)=O)c2c3c(sc2n1Cc1cccc(Cl)c1)CCCC3	inactive: 17.9%
COc1ccc(C(=O)Nc2ccc3nc(N4CCCCC4)cc(C)c3c2)c(OC)c1	inactive: 2.39%
Cc1cn2c(=O)cc(COc3cccc(NC(=O)c4cccc(F)c4)c3)nc2s1	inactive: 9.74%
COc1ccc(N2CCN(S(=O)(=O)CCNC(=O)Cc3ccc(-c4ccccc4)cc3)CC2)cc1	inactive: 10.6%
CCOC(=O)c1c(-c2ccccc2)csc1NC(=O)c1cc(-c2cccc(OC)c2)on1	inactive: 9.06%
Cc1ccc(Cl)cc1N1CCN(C(=O)Cn2nc(C)n3c(cc4sccc43)c2=O)CC1	inactive: 6.31%
Cc1cc(C)cc(C(=O)Nc2c3c(nn2-c2ccccc2C)CS(=O)(=O)C3)c1	inactive: -3.8%
CCCN(C(=O)CCn1cnc2onc(-c3ccc(F)cc3)c2c1=O)c1ccccc1C	inactive: -17.7%
Cc1cc(C)cc(NC(=O)Cn2nnc(C(=O)NCc3ccco3)c2N)c1	inactive: -2.03%
O=C(CN1C(=O)COc2ccc(S(=O)(=O)N3CCCCCC3)cc21)N1CCN(c2ccccc2)CC1	inactive: 10.4%

Structure (SMILES)	activity change, negative = cytotoxicity
CCC(=O)N1c2nc(C(C)C)nn2C2(CCCCC2)[C@@H]2CCCC[C@@H]21	inactive: 0.68%
O=C(Cn1nc2c(cc1=O)CCCC2)NCc1ccccc1Cl	inactive: -3.19%
Cc1ccc(C(=O)Nc2nnc(SCc3cc(=O)n4ccc(C)cc4n3)s2)cc1	inactive: 12.5%
CCCCN(C)c1ncnc2c1cnn2-c1cccc(Cl)c1	inactive: 16.1%
N#Cc1ccccc1NC(=O)C(=O)NCC(c1cccnc1)N1CCc2ccccc2C1 (stereo not drawn)	inactive: -8.17%
CCc1ccc(S(=O)(=O)c2nnn3c2nc(Nc2cccc(C)c2C)c2sccc23)cc1	inactive: -17.8%
O=C(NCc1ccccc1Br)c1ccc(-n2cnc3cccnc32)cc1	inactive: -13.6%
COc1cc(-c2nnc(SCC(=O)N3CCCc4ccccc43)o2)cc(OC)c1OC	inactive: -14.7%
COc1ccc(N(CC(=O)Nc2ccc(Cl)cc2C)S(=O)(=O)c2ccccc2)c(OC)c1	inactive: -21.5%
Cc1cc(SCC(=O)NCc2ccccc2)nc(=O)[nH]1	inactive: 7.07%
COc1cccc(CNc2ccc3c(c2)ncn3C)c1OC	inactive: 18.3%
CCC(=O)N1CCc2cc(S(=O)(=O)NCCC(=O)Nc3cccc(C)c3C)ccc21	inactive: 6.18%
CCOc1ccccc1NC(=O)C1CCCN(S(=O)(=O)c2ccc3c(c2)CCCN3C(C)=O)C1 (stereo not drawn)	inactive: -28.4%
Cc1cccc(-c2cc(NC(=O)COc3ccccc3F)n(-c3ccccc3)n2)c1	inactive: -8.24%
Cc1nnsc1C(=O)Oc1ccccc1Cl	inactive: 6.65%
Cc1ccccc1C(=O)Nc1nnc(S(=O)(=O)N2CCCc3ccccc32)s1	inactive: -4.13%
COc1ccc(C(=O)N2CCC(C(=O)Nc3ccc(OC)cc3OC)CC2)cc1	inactive: 7.06%
Cc1ccc(-n2c(=O)c3sccc3n(Cc3cc(=O)n4ccccc4n3)c2=O)cc1	inactive: -0.865%
CCN(CC)CCOC(=O)c1ccc(NC(=O)CCn2c(=O)oc3ccccc32)cc1	inactive: 26.8%
CSc1ccccc1NC(=O)CCS(=O)(=O)c1nc(-c2cccs2)cc(C(F)(F)F)n1	inactive: 11.5%
Cc1ccc(-c2cn3c4c(=O)n(C)c(=O)n(C)c4nc3n2-c2cccc(Cl)c2)cc1	inactive: -1.24%
CCn1c(C(=O)Nc2cc(C)cc(C)c2)cc2sc(Cl)cc21	inactive: -1.4%
COc1ccc(C(=O)N=c2sc3cc(Cl)ccc3n2C)cc1	inactive: 8.72%
